From PubChem BioAssay AID488969 (Vanderbilt High Throughput Screening Facility, 2010)
In all, about 110,000 compounds were measured (“z-score”: median about -0.1, highest 2% from about 2 on). The list shows a part of the results.

The compounds below were run against Metabotropic glutamate receptor 8 (Rattus norvegicus) (UniProt P70579) (assay: rat mGluR8 modulators via GIRK flux, primary screen, cell-based, thallium flux, HTS (AID 488969)). Settings: HEK293 rat mGluR8, GIRK (G protein-gated inwardly rectifying potassium channel) thallium flux, FluoZin2; at 10 µM; stronger effect = higher value; submaximal glutamate (EC20) added with thallium.
Chain of UniProt P70579 (P70579 whole entry, looked up): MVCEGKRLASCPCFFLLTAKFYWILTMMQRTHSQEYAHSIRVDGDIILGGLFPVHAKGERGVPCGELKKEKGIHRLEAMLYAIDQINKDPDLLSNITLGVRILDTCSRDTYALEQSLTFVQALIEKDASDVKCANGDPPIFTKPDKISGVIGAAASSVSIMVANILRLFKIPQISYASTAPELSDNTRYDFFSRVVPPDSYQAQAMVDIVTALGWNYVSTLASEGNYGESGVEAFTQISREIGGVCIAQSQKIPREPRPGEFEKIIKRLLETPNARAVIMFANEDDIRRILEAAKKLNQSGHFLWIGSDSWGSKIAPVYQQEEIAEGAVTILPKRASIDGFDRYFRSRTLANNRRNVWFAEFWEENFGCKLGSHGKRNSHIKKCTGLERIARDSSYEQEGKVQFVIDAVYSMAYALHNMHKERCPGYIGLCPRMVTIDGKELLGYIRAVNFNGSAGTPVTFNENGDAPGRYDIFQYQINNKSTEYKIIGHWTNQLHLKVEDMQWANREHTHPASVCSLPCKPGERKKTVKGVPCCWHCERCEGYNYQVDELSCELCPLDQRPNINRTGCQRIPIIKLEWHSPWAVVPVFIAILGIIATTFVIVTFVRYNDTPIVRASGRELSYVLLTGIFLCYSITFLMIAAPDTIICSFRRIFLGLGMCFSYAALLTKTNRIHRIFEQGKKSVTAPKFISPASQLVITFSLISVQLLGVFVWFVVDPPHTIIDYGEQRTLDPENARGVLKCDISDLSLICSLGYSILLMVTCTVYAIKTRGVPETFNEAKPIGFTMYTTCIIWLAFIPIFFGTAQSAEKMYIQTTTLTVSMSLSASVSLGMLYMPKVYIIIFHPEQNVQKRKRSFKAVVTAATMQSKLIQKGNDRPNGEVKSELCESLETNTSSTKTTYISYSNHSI
With `O=C(Cn1cnc2c(cnn2-c2ccc(F)cc2)c1=O)NCC1CCCO1` (centres undefined) the z-score was 0.105. Compound `COCCn1c(-c2ccc(OC)c(OC)c2)nc2ccccc21` has a z-score of 1.11. In the case of `c1cnc(NCCNc2ncccn2)nc1`, the z-score is reported as -0.186. In the case of `O=S(=O)(c1ccccc1)n1ccc(-c2cnc(-c3ccccc3)s2)n1`, the z-score is reported as -0.268. With `COCCNC(=O)Cn1c(=O)n(CCCCCC(=O)Nc2ccccc2)c(=O)c2sccc21` the z-score was -0.519. `Cc1ccc(Nc2nnc(SCC3CCCCO3)s2)cc1` (centres undefined) gave a z-score of 1.64. `N/C(=N\OC(=O)c1ccc(F)cc1)c1ccccc1` showed a z-score of -0.273. With `CC1CCc2cc(F)ccc2N1C(=O)CSc1nnc2c(n1)[nH]c1ccccc12` (centres undefined) the z-score was -0.526. Compound `Cn1nc(C(=O)N2CCOCC2)c2ccccc2c1=O` has a z-score of 0.931. For `COc1ccc(Cn2nnnc2C(c2cccs2)N2CCN(c3ccc([N+](=O)[O-])cc3)CC2)cc1` (centres undefined), the z-score was 0.00513. In the case of `Cc1c(NC(=O)CN2C(=O)c3ccccc3S2(=O)=O)c(=O)n(-c2ccccc2)n1C`, the z-score is reported as -1.18. Work on `O=C(CN1C(=O)C2CC=CCC2C1=O)NC1=NCCS1` (centres undefined) yielded a z-score of 0.0586. Work on `Cc1ccc2nc(NC(=O)C3CCN(S(=O)(=O)c4cccnc4)CC3)sc2c1` yielded a z-score of 0.122. `OC1(C(F)(F)F)CC(O)(C(F)(F)F)n2nc(-c3ccccc3)cc2N1` (centres undefined) showed a z-score of 0.0743. `Cc1cc(NC(=O)CCC(=O)N(c2ccc(F)cc2)C(C(=O)NC2CCCC2)c2ccncc2)no1` (centres undefined) showed a z-score of 0.0425. In the case of `O=C(CC12CC3CC(CC(C3)C1)C2)NC(=S)N1CCCCC1`, the z-score is reported as 2.58. Compound `Cc1ccc(O)c(C(=O)c2cnc3c(c2)COc2ccccc2-3)c1` has a z-score of -0.0344. `O=C1CCCN1CCCn1cnc2c([nH]c3ccc(F)cc32)c1=O` showed a z-score of 0.098. Work on `O=S(=O)(CCn1cccc1)CCn1cccc1` yielded a z-score of -0.116. `CCOC(=O)C(=CNc1cc(C)ccc1C)C(=O)OCC` was tested, and the z-score was -1.37. Compound `CC(C)CCNC(=O)c1cc([N+](=O)[O-])ccc1N1CCOCC1` has a z-score of -0.139. `COc1ccc(S(=O)(=O)N(CC(C)C)CC(C)C)c2cccnc12` gave a z-score of -0.383. `CCn1c(COc2ccc3c(c2)OCO3)nnc1SCC(=O)O` showed a z-score of 0.461. `CCOc1ccc(CNC(=O)CCn2c(=O)oc3ccccc32)cc1` was tested, and the z-score was 0.64. Compound `CC(C)CCNC(=O)C(C)N(Cc1ccc(F)cc1)C(=O)c1ccc(CN2CCCCC2)o1` (centres undefined) has a z-score of -2.97. With `CN(C)S(=O)(=O)c1ccc(C(=O)N(c2ccccn2)c2ccccn2)cc1` the z-score was 1.58. In the case of `COc1ccc(C(C#N)Nc2ccccc2)cc1` (centres undefined), the z-score is reported as -0.0463. `COc1ccc2c(c1)CCc1c(C(=O)N3CCCC3)noc1-2` gave a z-score of -0.0276. With `CC(Nc1cc(N2CCN(S(C)(=O)=O)CC2)ccc1[N+](=O)[O-])c1ccccc1` (centres undefined) the z-score was -0.53. Work on `CCCN(CCO)Cc1ccc(Cl)c(Cl)c1` yielded a z-score of 0.18. Compound `Cc1nc(NC(=O)/C=C/c2ccccc2)sc1C(=O)Nc1cccc(Cl)c1` has a z-score of -0.114. `CSc1nnc(-c2ccccc2)n1N` showed a z-score of 0.0147. `O=C(CCSc1nnc2scc(-c3ccccc3)n12)NCc1ccc2c(c1)OCO2` showed a z-score of -0.963. In the case of `Cc1cc(C)cc(N2CC(c3nc4ccccc4n3C)CC2=O)c1` (centres undefined), the z-score is reported as -0.0707. Compound `O=C(CCCn1c(SCC(=O)c2ccccc2)nc2ccccc2c1=O)NCC1CCCO1` (centres undefined) has a z-score of -0.0998. `O=S(=O)(N/N=C/c1c(F)cccc1Cl)c1ccccc1` was tested, and the z-score was -0.12. `c1ccc(-c2cnc(-c3ccccc3)nc2)cc1` gave a z-score of -0.0392. For `CC1(NC(=O)NCc2ccco2)CCS(=O)(=O)C1` (centres undefined), the z-score was -0.182. For `COc1ccc(NC(=S)Nc2nc(CC(=O)Nc3ccccc3OC)cs2)cc1`, the z-score was -0.494. Compound `O=C(CSc1nnc(Cc2cc(=O)[nH]c(=O)[nH]2)n1-c1ccccc1)N1CCCc2ccccc21` has a z-score of 0.0633. `CCCCOC(=O)C1CCC[C@@H](C)N1` (some centres undefined) gave a z-score of 0.585. With `O=C(CSc1nccc(-c2ccc(Br)cc2)n1)NCCc1ccccc1` the z-score was -0.179. For `CCOC(=O)C1CCN(CC(=O)Nc2c(C(=O)OC)[nH]c3cccc(Cl)c23)CC1`, the z-score was -0.203. `Cc1cccc(C=Nc2ccc3c(c2)oc2ccccc23)c1O` was tested, and the z-score was -0.126. Work on `COCc1[nH][nH]c(=O)c1C=Nc1ccc(F)cc1F` yielded a z-score of 0.132. For `O=C(N/C(=C\c1ccc2c(c1)OCO2)C(=O)N1CCOCC1)c1cccs1`, the z-score was 0.459. For `O=C(NCc1ccccc1)/C(=C/c1ccc(OC(F)F)cc1)c1ccccc1`, the z-score was -0.247. `CCOC(=O)c1ccc(NC(=O)CSCc2ccco2)cc1` was tested, and the z-score was -0.177. In the case of `CCN(CC)CCN(C)Cc1ccc(Br)cc1`, the z-score is reported as 0.0841. `Cc1ccc2c(c1)cc(CN(Cc1ccco1)S(=O)(=O)c1ccccc1)c1nnnn12` showed a z-score of -0.158. In the case of `COc1ccc(C2N(c3cc(Cl)ccc3OC)C(=O)C3CCCN32)cc1` (centres undefined), the z-score is reported as -0.0897. In the case of `O=C(NCCc1nc(-c2ccccc2)cs1)c1ccc(Br)cc1`, the z-score is reported as -0.406. For `Cc1ccc(N(C(=O)Cn2nnc(-c3ccc(C)o3)n2)C(C(=O)NC2CCCC2)c2ccco2)cc1` (centres undefined), the z-score was 0.235. For `CC(=O)Nc1ccc(/C(C)=N/NS(=O)(=O)c2ccc(C)cc2)cc1`, the z-score was -0.422.
